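Briefly, cells in 96-well plates were exposed to five compound concentrations for 48 h, and endpoints were estimated by linear interpolation. Here, GI50 denotes the concentration required for 50% inhibition of growth.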 Certain results were filed several times, with different values. This is not the full list of results. An entry can have further records. Records of one sample usually come from different ranges of test concentrations, not given here; a value can be the end of its range. Brackets tell where a record comes from. Letters hold for one entry only.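 TGI denotes the concentration required for complete inhibition of growth.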
Test system: MDA-MB-468 breast
Assay: inhibition of tumour cell growth, NCI panel, 48 h

Cc1nc(Nc2ncc(C(=O)Nc3c(C)cccc3Cl)s2)cc(N2CCN(CCO)CC2)n1
GI50: 86 nM [sample A, 1 test] and 94 nM [sample A, mean of 2 tests] and 865 nM [sample B, mean of 2 tests] and 335 nM [sample C, mean of 2 tests] | TGI: 1.25 µM [sample A, 1 test] and 1.34 µM [sample A, mean of 2 tests] and 7.84 µM [sample B, mean of 2 tests] and 3.97 µM [sample C, mean of 2 tests]

Source: PubChem BioAssay (NCI)
